Measurements: paper PMC12713088
These are yes or no findings as the source states them, for the method shown. Where a sequence is shown, tags or fusion partners need not be part of it.

Assays:
Test in all cases: two-hybrid; pGADT7 and pGBKT7 fusions, strains AH109 and Y187 mated; growth on SD-LWH with 0 or 3 mM 3-AT
Conditions in all cases: remark: other sources report otherwise
[1] = molecular target: T1, INCURVATA 11 (ICU11), yeast two-hybrid fusion (Arabidopsis thaliana), Q3ED68
T1 chain: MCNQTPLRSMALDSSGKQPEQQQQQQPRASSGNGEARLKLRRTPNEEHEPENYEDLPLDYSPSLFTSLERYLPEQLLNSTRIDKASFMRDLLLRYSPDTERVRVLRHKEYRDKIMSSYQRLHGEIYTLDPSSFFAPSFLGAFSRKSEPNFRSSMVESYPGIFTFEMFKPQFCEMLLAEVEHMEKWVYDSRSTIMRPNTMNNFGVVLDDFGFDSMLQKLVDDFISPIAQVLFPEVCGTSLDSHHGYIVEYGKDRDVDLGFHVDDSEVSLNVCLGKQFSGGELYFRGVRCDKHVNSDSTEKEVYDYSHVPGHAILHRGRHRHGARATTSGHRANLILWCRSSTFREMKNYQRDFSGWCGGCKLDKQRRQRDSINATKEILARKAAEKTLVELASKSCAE

[2] = molecular target: T2, TRB3, yeast two-hybrid fusion (Arabidopsis thaliana), Q9M2X3
T2 chain: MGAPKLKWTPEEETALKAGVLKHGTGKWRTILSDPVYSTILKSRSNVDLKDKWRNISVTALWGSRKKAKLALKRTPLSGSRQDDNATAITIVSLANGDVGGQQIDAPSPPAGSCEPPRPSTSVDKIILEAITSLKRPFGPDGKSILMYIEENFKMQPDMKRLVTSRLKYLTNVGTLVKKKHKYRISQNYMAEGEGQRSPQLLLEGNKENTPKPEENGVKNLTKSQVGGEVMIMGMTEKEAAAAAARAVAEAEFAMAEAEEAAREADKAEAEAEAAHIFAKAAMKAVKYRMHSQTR

[3] = molecular target: T3, TRB2, yeast two-hybrid fusion (Arabidopsis thaliana), Q9FJW5
T3 chain: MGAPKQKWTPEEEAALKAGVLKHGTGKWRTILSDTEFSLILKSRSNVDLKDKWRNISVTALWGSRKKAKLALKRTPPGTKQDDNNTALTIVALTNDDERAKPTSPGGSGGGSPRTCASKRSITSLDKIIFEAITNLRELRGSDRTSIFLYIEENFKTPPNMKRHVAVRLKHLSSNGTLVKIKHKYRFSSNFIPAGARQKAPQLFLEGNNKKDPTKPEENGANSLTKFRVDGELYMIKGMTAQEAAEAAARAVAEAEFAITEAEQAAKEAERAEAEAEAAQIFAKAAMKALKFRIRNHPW

[4] = molecular target: T4, TRB1, yeast two-hybrid fusion (Arabidopsis thaliana), Q8VWK4
T4 chain: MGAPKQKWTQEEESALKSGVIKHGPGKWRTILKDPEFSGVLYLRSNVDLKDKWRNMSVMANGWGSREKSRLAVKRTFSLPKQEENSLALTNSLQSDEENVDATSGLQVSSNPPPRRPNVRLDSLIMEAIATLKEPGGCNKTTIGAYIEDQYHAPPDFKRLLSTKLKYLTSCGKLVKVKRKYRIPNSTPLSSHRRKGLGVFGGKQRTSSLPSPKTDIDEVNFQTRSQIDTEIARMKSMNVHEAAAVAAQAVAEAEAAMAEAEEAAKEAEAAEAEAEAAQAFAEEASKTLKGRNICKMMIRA

Measured: binding

B1: JUMONJI14 (JMJ14), yeast two-hybrid fusion, Q8GUI6 1-954 (enzyme)
chain: MDQLASLAESVAMEEDSEKQSIKGESSLEPDSTPSSPKITARWNPSEACRPLVDDAPIFYPTNEDFDDPLGYIEKLRSKAESYGICRIVPPVAWRPPCPLKEKKIWENSKFPTRIQFIDLLQNREPIKKSTKTKKRKRRRISKIGYTRRKRDSGCDTASSGSSDSEGKFGFQTGPDFTLEEFQKYDEYFKECYFQSEDHPGSKASENKKFKPKVKDLEGEYWRIVEQATDEVEVYYGADLETKKFGSGFPKYKPGYPISEADQYSQCGWNLNNLSRLPGSVLAFESCDISGVIVPWLYVGMCFSTFCWHVEDHHLYSMNYLHTGDPKVWYGIPGNHAESFENVMKKRLPDLFEEQPDLLHQLVTQLSPRILKEEGVPVYRAVQRSGEFILTFPKAYHSGFNCGFNCAEAVNVAPVDWLVHGQNAVEGYSKQRRKSSLSHDKLLLGAAMEATYCLWELSLSKKKTPVIARWKRVCSEDGLLTKAVKKRVQMEEERLNHLQDGFSLRKMEGDFDNKRERECFLCFYDLHMSASSCKCSPNRFACLIHAKDLCSCESKDRYILIRHTLDELWALVRALEGDLDAIDLWASKCRDQYPSQHPRAREYAYLKSAPCIKSRGSSKVQQREQNNLQLVSERLQSDLTSNKEVQLKQDGDSDVNRHGHESERNHVHGITDKSAVTDVKLGVGGKFDEKKISVESQNPHSVSDVGCSELAKKVDGCLGGKDQNAATNRLSLSVELLSSGSLVVKKLWCSKQAIYPKGFKSRVKFLSVLDPTNLTNYISEVLDAGLLGPLFRVSVEDYPTENFSNVSAEKCWQMVTQRLKLEIIKKCDQPVSSLTSLQPLESINGLEMFGFLSPHVIKVVEALDPKHQLEEYWNQKAVKLFGAEPIKEGEKDDTEKGGASDPSLDRDTRLLRGLLKKATPEELVMMHGLLCGETRNTELKEELSTLVDKMEISP
no binding: all assays above
